This note sets out measurements from article PMC12820563, “FoxP3 forms a head-to-head dimer in vivo and stabilizes its multimerization on adjacent microsatellites”.

The list shows a part of the results.

In the assay the target is T1, MBP-FoxP1dN (Mus musculus, UniProt P58462 326-579).
T1 sequence: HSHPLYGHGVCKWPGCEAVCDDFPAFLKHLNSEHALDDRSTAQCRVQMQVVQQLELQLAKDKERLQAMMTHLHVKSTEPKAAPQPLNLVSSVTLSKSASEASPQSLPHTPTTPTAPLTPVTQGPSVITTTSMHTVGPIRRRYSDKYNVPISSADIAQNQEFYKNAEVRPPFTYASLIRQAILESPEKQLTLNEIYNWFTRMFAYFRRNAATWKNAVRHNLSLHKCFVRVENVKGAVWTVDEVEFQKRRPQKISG
The experiment in a line: PD-seq (MBP pull-down with sequencing); 20 mM Tris-HCl pH 7.5, 100 mM NaCl, 1.5 mM MgCl2, 0.4 uM protein, 0.1 uM dsDNA library, 30 min, room temperature, amylose pull-down; high values mean tight binding. Particulars: protein: recombinant; tags: His6-MBP; chain copies: 2; dsDNA, one strand shown. The gist of the method:
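Binding is given as reads-per-million enrichment, pull-down over input, with replicates pooled. The bait was an N-terminus-lacking mouse FoxP3 or FoxP1 fragment with a His6-MBP tag, expressed in E. coli and used at 0.4 µM with 0.1 µM Klenow-filled degenerate double-stranded DNA library for 30 min at room temperature in Tris pH 7.5 buffer with NaCl and MgCl2. Amylose resin pull-down with three washes was followed by proteinase K release, PCR barcoding and Illumina sequencing.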
With “GATGATTGTTCTCCCAGCTGATGAATTGCAAGCCTCGAGTAAACAAATTTTCCTAATCTTTCTGTTCAAGCGCCATCTAC”, the binding signal is 0.99 RPM ratio (pull-down/input). Regarding “GATGATTGTTCTCCCAGCTGATGAATTCTAACCTTCGAGTAAACAAATTTTCCTAATCTTTCTGTTCAAGCGCCATCTAC”, the binding signal was 0.9 RPM ratio (pull-down/input). In the case of “GATGATTGTTCTCCCAGCTGATGAATTACATTGTTCGAGTAAACAAATTTTCCTAATCTTTCTGTTCAAGCGCCATCTAC” it was 1.31 RPM ratio (pull-down/input); in that of “GATGATTGTTCTCCCAGCTGATGAATTTTACGACTCGAGTAAACAAATTTTCCTAATCTTTCTGTTCAAGCGCCATCTAC”, 0.85 RPM ratio (pull-down/input); in that of “GATGATTGTTCTCCCAGCTGATGAATTAAGTATTTCGAGTAAACAAATTTTCCTAATCTTTCTGTTCAAGCGCCATCTAC”, 1.07 RPM ratio (pull-down/input). In the case of “GATGATTGTTCTCCCAGCTGATGAATTCAGCTTATCGAGTAAACAAATTTTCCTAATCTTTCTGTTCAAGCGCCATCTAC” it was 0.982 RPM ratio (pull-down/input).

For “GATGATTGTTCTCCCAGCTGATGAATTAATGTGCTCGAGTAAACAAATTTTCCTAATCTTTCTGTTCAAGCGCCATCTAC”, the binding signal is 0.997 RPM ratio (pull-down/input).

For the sequence “GATGATTGTTCTCCCAGCTGATGAATTGTGTTCCTCGAGTAAACAAATTTTCCTAATCTTTCTGTTCAAGCGCCATCTAC”, the binding signal was 1.4 RPM ratio (pull-down/input). For “GATGATTGTTCTCCCAGCTGATGAATTGGCTAAGTCGAGTAAACAAATTTTCCTAATCTTTCTGTTCAAGCGCCATCTAC” the value was 0.879 RPM ratio (pull-down/input); for “GATGATTGTTCTCCCAGCTGATGAATTAAGTTAATCGAGTAAACAAATTTTCCTAATCTTTCTGTTCAAGCGCCATCTAC”, 1.08 RPM ratio (pull-down/input).

Turning to “GATGATTGTTCTCCCAGCTGATGAATTCGTACTTTCGAGTAAACAAATTTTCCTAATCTTTCTGTTCAAGCGCCATCTAC”, the binding signal is 0.933 RPM ratio (pull-down/input). As to “GATGATTGTTCTCCCAGCTGATGAATTGGTCGGATCGAGTAAACAAATTTTCCTAATCTTTCTGTTCAAGCGCCATCTAC”, the binding signal was 0.882 RPM ratio (pull-down/input). In the case of “GATGATTGTTCTCCCAGCTGATGAATTACCGTGCTCGAGTAAACAAATTTTCCTAATCTTTCTGTTCAAGCGCCATCTAC” it was 0.964 RPM ratio (pull-down/input). For “GATGATTGTTCTCCCAGCTGATGAATTGCTTTCTTCGAGTAAACAAATTTTCCTAATCTTTCTGTTCAAGCGCCATCTAC” the value was 1.26 RPM ratio (pull-down/input). For the sequence “GATGATTGTTCTCCCAGCTGATGAATTCTAAGCATCGAGTAAACAAATTTTCCTAATCTTTCTGTTCAAGCGCCATCTAC”, the binding signal is 1.05 RPM ratio (pull-down/input). For “GATGATTGTTCTCCCAGCTGATGAATTGGTCGACTCGAGTAAACAAATTTTCCTAATCTTTCTGTTCAAGCGCCATCTAC” the value was 0.893 RPM ratio (pull-down/input). In the case of “GATGATTGTTCTCCCAGCTGATGAATTTACTTCATCGAGTAAACAAATTTTCCTAATCTTTCTGTTCAAGCGCCATCTAC”, the binding signal was 1.51 RPM ratio (pull-down/input).

Consider “GATGATTGTTCTCCCAGCTGATGAATTATTGACGTCGAGTAAACAAATTTTCCTAATCTTTCTGTTCAAGCGCCATCTAC”, for which the binding signal is 1.66 RPM ratio (pull-down/input).

On to “GATGATTGTTCTCCCAGCTGATGAATTTGGTGTGTCGAGTAAACAAATTTTCCTAATCTTTCTGTTCAAGCGCCATCTAC”, for which the binding signal was 1 RPM ratio (pull-down/input). Turning to “GATGATTGTTCTCCCAGCTGATGAATTTTAACTGTCGAGTAAACAAATTTTCCTAATCTTTCTGTTCAAGCGCCATCTAC”, the binding signal was 0.899 RPM ratio (pull-down/input). Turning to “GATGATTGTTCTCCCAGCTGATGAATTTGAGTATTCGAGTAAACAAATTTTCCTAATCTTTCTGTTCAAGCGCCATCTAC”, the binding signal is 0.967 RPM ratio (pull-down/input). In the case of “GATGATTGTTCTCCCAGCTGATGAATTCTGGACATCGAGTAAACAAATTTTCCTAATCTTTCTGTTCAAGCGCCATCTAC” it was 0.937 RPM ratio (pull-down/input); in that of “GATGATTGTTCTCCCAGCTGATGAATTCAATGCTTCGAGTAAACAAATTTTCCTAATCTTTCTGTTCAAGCGCCATCTAC”, 0.895 RPM ratio (pull-down/input); in that of “GATGATTGTTCTCCCAGCTGATGAATTCGACGCTTCGAGTAAACAAATTTTCCTAATCTTTCTGTTCAAGCGCCATCTAC”, 0.866 RPM ratio (pull-down/input).

“GATGATTGTTCTCCCAGCTGATGAATTAGCTAGCTCGAGTAAACAAATTTTCCTAATCTTTCTGTTCAAGCGCCATCTAC”: the binding signal is 0.828 RPM ratio (pull-down/input).

With “GATGATTGTTCTCCCAGCTGATGAATTTTGAGCTTCGAGTAAACAAATTTTCCTAATCTTTCTGTTCAAGCGCCATCTAC”, the binding signal is 0.856 RPM ratio (pull-down/input). For “GATGATTGTTCTCCCAGCTGATGAATTGGCTATTTCGAGTAAACAAATTTTCCTAATCTTTCTGTTCAAGCGCCATCTAC” the value was 0.957 RPM ratio (pull-down/input); for “GATGATTGTTCTCCCAGCTGATGAATTGCAGGCATCGAGTAAACAAATTTTCCTAATCTTTCTGTTCAAGCGCCATCTAC”, 1.19 RPM ratio (pull-down/input).

On to “GATGATTGTTCTCCCAGCTGATGAATTTGTAAGTTCGAGTAAACAAATTTTCCTAATCTTTCTGTTCAAGCGCCATCTAC”, for which the binding signal was 1.07 RPM ratio (pull-down/input). In the case of “GATGATTGTTCTCCCAGCTGATGAATTAGATACCTCGAGTAAACAAATTTTCCTAATCTTTCTGTTCAAGCGCCATCTAC” it was 0.983 RPM ratio (pull-down/input); in that of “GATGATTGTTCTCCCAGCTGATGAATTGTGACGATCGAGTAAACAAATTTTCCTAATCTTTCTGTTCAAGCGCCATCTAC”, 1.05 RPM ratio (pull-down/input).
